For the test, the target named is ALPN-202 (davoceticept), variant CD80 IgV domain Fc fusion (human, UniProt P33681 69-175, E35D | M47L | V68M). Kind of test: SPR. (Surface plasmon resonance follows binding to a sensor surface in real time, without labels.)

This passage reports koff results from article PMC8980021 (2022).

B1: recombinant monomeric human CTLA-4 (receptor)
chain: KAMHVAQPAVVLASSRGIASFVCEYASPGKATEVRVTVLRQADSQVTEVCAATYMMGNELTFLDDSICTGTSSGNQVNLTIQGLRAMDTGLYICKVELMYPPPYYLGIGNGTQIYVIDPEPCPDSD
Broadly, the koff is the rate constant with which the complex falls apart. Low values mean a long-lived complex, high ones a short-lived complex. For B1, the koff was determined as 0.00052 s⁻¹.
